Laboratory results reported in publication PMC6919601, “Identification of Plasmodium dipeptidyl aminopeptidase allosteric inhibitors by high throughput screening” (PLoS ONE, 2019).
Hit rate of the full screen: of about 110,000 compounds, about 230 (0.21%) showed an effect of 50% or more. Some of the results follow.

Biological target: DPAP1 (Plasmodium falciparum, UniProt Q8IIJ9)
Assay: primary screen, percent inhibition; read by cleavage of a fluorogenic dipeptide substrate; higher = more effect of the substance
Parameters: species or system P. falciparum D10 trophozoite lysates; single well
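Note: 30 min substrate incubation versus DMSO and 10 µM JCP410 controls.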

Chain of DPAP1 (Q8IIJ9 whole entry, looked up): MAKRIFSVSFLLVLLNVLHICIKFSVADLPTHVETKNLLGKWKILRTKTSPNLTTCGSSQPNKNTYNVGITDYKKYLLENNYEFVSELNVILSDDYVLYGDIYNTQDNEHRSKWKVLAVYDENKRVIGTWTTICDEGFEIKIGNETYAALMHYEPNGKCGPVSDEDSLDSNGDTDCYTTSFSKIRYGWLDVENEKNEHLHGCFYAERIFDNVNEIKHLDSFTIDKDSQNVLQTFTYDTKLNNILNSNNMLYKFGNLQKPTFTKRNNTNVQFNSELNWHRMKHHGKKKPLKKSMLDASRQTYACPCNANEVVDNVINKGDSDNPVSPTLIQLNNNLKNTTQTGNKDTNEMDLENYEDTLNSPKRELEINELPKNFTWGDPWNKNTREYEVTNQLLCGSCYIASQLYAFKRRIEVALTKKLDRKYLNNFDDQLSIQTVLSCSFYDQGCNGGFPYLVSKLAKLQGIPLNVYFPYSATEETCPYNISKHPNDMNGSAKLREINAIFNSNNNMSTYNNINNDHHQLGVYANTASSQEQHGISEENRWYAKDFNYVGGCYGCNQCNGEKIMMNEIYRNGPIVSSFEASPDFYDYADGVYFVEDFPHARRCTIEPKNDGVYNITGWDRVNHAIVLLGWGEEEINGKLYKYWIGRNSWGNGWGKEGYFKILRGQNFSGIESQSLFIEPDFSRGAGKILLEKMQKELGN

Point of comparison: `CC(C)c1ccc(S(=O)(=O)c2cnc(SCC(N)=O)nc2O)cc1`, “% Inhibition @ 10 uM” value 0.351%. Against it:
- O=C(ON=C1C=CC(=NOC(=O)c2ccco2)C=C1)c1ccccc1 — higher, 8.01%
- O=C(CN(Cc1ccc(Cl)cc1)S(=O)(=O)c1ccccc1)Nc1ccc2c(c1)OCCO2 — higher, 7.17%
- O=C(NCCC1=CCCCC1)NCc1noc2ccccc12 — higher, 3.28%
- Cn1cnnc1SCc1cn2cc(Cl)ccc2n1 — higher, 1.6%
- O=C(CN1Cc2ccccc2C1=O)N1CCOCC1 — lower, -0.501%
- CC/N=c1\c(NS(=O)(=O)c2ccc(OC)cc2)c(O)oc2ccccc12 — lower, -0.0709%
- O=c1c(-c2ccccc2)c(C(F)(F)F)oc2c(CN3CCCCC3)c(O)ccc12 — higher, 4.86%
- CC(C)NC(=O)NS(=O)(=O)c1cnccc1N1CCCCC1 — higher, 2.49%
- Cc1nn(C)c2c1c(-c1ccccc1)cc(=O)n2Cc1cccc(F)c1 — higher, 2.65%
- Cc1sc2ncn(CC(=O)NCCCC(=O)N(C)Cc3ccccc3)c(=O)c2c1C — higher, 5.12%
- Cn1c(C(=O)N2CCC(C(N)=O)CC2)cc2sccc21 — lower, -3.08%
- COCCOC(=O)c1c(C)oc2ccc(OCc3ccc(C)cc3)cc12 — lower, -0.357%
- CC(C)(Oc1ccc(Cl)cc1)C(=O)N1CCN(c2ccccc2)CC1 — lower, -6.02%
- CCOc1ccc(CCNC(=O)c2cc3c(s2)CS(=O)(=O)C3)cc1OCC — lower, -6.77%
- CN(Cc1ccccc1)Cc1nc2c(c(=O)n(C)c(=O)n2C)n1CCCc1ccccc1 — lower, -3.46%
- O=S1(=O)c2ccccc2NC(c2cccc(OC3CSC3)c2)N1Cc1ccccc1 (stereo not drawn) — higher, 0.993%
- CCOC(=O)c1c(NC(=O)/C=C/C(=O)O)sc2c1CCN(Cc1ccccc1)C2 — lower, -1.92%
- COc1ccc(CN2CCCCC2C)c(C)c1C (stereo not drawn) — higher, 3.24%
- CC(C)NS(=O)(=O)c1ccc(-c2ccc(S(=O)(=O)NC(C)C)cc2)cc1 — higher, 1.7%
- CC(C)N(Cc1nc(-c2ccccc2)no1)C(=O)N1CCOCC1 — higher, 0.486%
- CC1(C)OC(=O)C(/C=N/c2ncccn2)=C(O)O1 — higher, 3.66%
- COc1ccc(C2CC(=O)N=C(NC(=O)c3ccc(OC(F)F)cc3)N2)cc1 (stereo not drawn) — higher, 4.5%
- CCOc1ccc(NS(=O)(=O)c2ccc(NC(=O)c3ccccc3C(=O)O)cc2)cc1 — higher, 3.5%
- COc1cc(/C=C2\SC(=O)N(Cc3ccccc3)C2=O)ccc1OCC(=O)O — lower, 0.189%
- Cc1nn(-c2ccccc2)c2sc(C(=O)NCC(=O)O)cc12 — lower, -7.04%
- CS(=O)(=O)N1CCCC(C(=O)NCCCN2CCN(Cc3ccccc3)CC2)C1 (stereo not drawn) — higher, 3.79%
- O=C1NC(=O)N(c2cccc(Cl)c2)C(=O)/C1=C\Nc1cccc(O)c1 — lower, -2.54%
- CC(C)(C)NC(CNS(=O)(=O)c1ccccc1)c1ccccc1 (stereo not drawn) — higher, 1.12%
- COc1cccc(-c2cc(C(=O)N3CCCC(C)C3)[nH]n2)c1 (stereo not drawn) — higher, 1.06%
- CC1CCN(S(=O)(=O)c2ccc3c(ccn3CCC(=O)NCCc3ccccc3Cl)c2)CC1 — higher, 5.61%
- NC(=O)C1CCCN(Cc2c(F)cccc2F)C1 (stereo not drawn) — higher, 6.49%
- CC1CCN(S(=O)(=O)c2ccc(NC(=O)c3ccc(Br)o3)cc2)CC1 — lower, -1.06%
- O=C1/C(=C\c2ccc(Cl)cc2)S(=O)(=O)c2ccccc21 — lower, -1.84%
- Cc1ccc(-c2noc(-c3nnn(-c4cccc(F)c4)c3N)n2)cc1 — lower, -4.17%
- O=C1CC(C(=O)N2CCOCC2)C2(CCCCC2)O1 (stereo not drawn) — lower, -0.925%
- O=C(O)c1ccc(NC(=O)c2cccnc2C(=O)O)cc1 — lower, -6.44%
- CCN1CCN(c2c(S(=O)(=O)c3ccc(C)cc3)cnc3cc(OC)c(OC)cc23)CC1 — lower, -3.86%
- COc1ccc(N(CC(=O)N2CCOCC2)S(=O)(=O)c2ccccc2)cc1OC — lower, -3.28%
- COCc1nnc(SCC(=O)Nc2cc(=O)n(C)c(=O)n2C)n1-c1ccccc1 — higher, 2.79%
- CCOc1ccc(CNC(=O)C2CCN(S(=O)(=O)N3CCC(C)CC3)CC2)cc1 — higher, 5.23%
- COc1ccc(CNC(=O)C(NS(=O)(=O)c2cccs2)C(C)C)cc1 (stereo not drawn) — higher, 0.723%
- O=C(CSc1nnc(-c2cccc(Cl)c2)o1)N1CCCC1 — lower, -4.03%
- COc1ccc(CNC(=O)c2oc3ccc(S(=O)(=O)N4CCOCC4)cc3c2C)cc1 — lower, -0.972%
- Cc1nc2cc(NC(=O)N3CCCCC3)ccc2n1C — higher, 4.49%
- CC(C)(C)c1ccc(S(=O)(=O)Nc2ccc(O)c(Br)c2)cc1 — higher, 5.97%
- O=C(Cn1ncc2ccc(Cl)cc21)N1CCc2ccccc2C1 — higher, 3.84%
- COc1cc2nc(S)nc(NCCC3=CCCCC3)c2cc1OC — lower, -4.69%
- Cc1cc(NC(=O)C(C)Oc2ccc(Cl)cc2Cl)no1 (stereo not drawn) — lower, -2.83%
- CC(=O)N(C)c1ccc(NC(=O)COc2ccc(C)cc2Br)cc1 — lower, -5.13%
- O=C(C1=C(O)C(=O)N(CC2CCCO2)C1c1ccc(Cl)cc1)c1ccc(Br)cc1 (stereo not drawn) — higher, 5.05%
- Cc1ccc(S(=O)(=O)Nc2ccc(C)c(O)c2)cc1 — lower, -6.39%
- CC(C)CS(=O)(=O)C1=NN2C(=N)/C(=C\c3c[nH]c4ccccc34)C(=O)N=C2S1 — higher, 1.9%
- Cn1c(C(=O)NCc2ccc(Cl)cc2)cc2oc3ccccc3c21 — lower, -5.63%
- O=C(O)C1CCCN(c2cnccn2)C1 (stereo not drawn) — higher, 0.401%
- COc1cc2ccccc2cc1C(=O)Nc1ccc(Cl)c(Cl)c1 — lower, -4.21%
- Cc1ccc(C(=N)NOC(=O)c2ccco2)cc1 — lower, 0.27%
- NC(=O)c1c(NC(=O)c2cccnc2)sc2c1CCCCCC2 — higher, 12.6%
- CCCNC(=O)Cn1nc(CC)n2c(cc3cc(F)ccc32)c1=O — lower, -7.22%
- CCOC(=O)C1=C(C)N(c2nonc2NC(C)=O)C(N)=C(C#N)C1c1ccccc1F (stereo not drawn) — higher, 4.32%
- COc1ccc(OC)c(-c2cc(C(=O)O)c3ccccc3n2)c1 — lower, -0.992%
- COc1cc(C2CC(=O)NC(SCC(=O)NCc3ccccc3)=C2C#N)ccc1O (stereo not drawn) — higher, 3.66%
- CC(C)Oc1ccc(C(=O)Nc2ccc(Cl)cc2)cc1 — higher, 0.795%
